In PubChem BioAssay AID445 (National Center for Advancing Translational Sciences (NCATS), 2006):
In all, about 110,000 compounds went through this assay and about 40 (0.04%) were called active. The shares of active, inactive and inconclusive entries below differ from those in the screen. Calls follow the shape of the dose curve; as a rule, active = well fitted curve in the direction sought with a large enough effect in the signal ratio (not every such curve was filed as active); inconclusive = small, poorly fitted or top-dose-only effect, or a change in a side signal; inactive = flat fitted curve, though single readings scatter; the % refers to the signal ratio. A potency beside an inconclusive call is a rough fit, not a confirmed value.

Test: IkB Signaling;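 as to IkBa stabilization activation: 0% = basal untreated cells and 100% = reference inhibitor full response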
Settings: ABC-DLBCL IkBa-CBG/CBR dual luciferase ratio (green luciferase fused to IkBa over red control in OCI-Ly3 lymphoma cells), 4 h, scaled: untreated 0%
Description: NIH Molecular Libraries Screening Centers Network [MLSCN]
NIH Chemical Genomics Center [NCGC]
Nuclear factor kappa-B (NF-kappa-B) plays an important role in normal B cell development and survival. Diffuse large B cell lymphoma (DLBCL) is the most commonly observed type of non-Hodgkin's lymphoma. Gene expression analysis has identified an activated B cell-like subtype of DLBCL (ABC-DLBCL) which expresses known NF-kappa-B target genes. […] However, targets upstream of IKK have been largely unexplored and so nodes upstream of IKK in the NF-kappa-B pathway remain untested due to the lack of chemical probes.
A cell-sensor assay for I-kappa-B-alpha stabilization was developed with NIH investigator Dr. R. Eric Davis in Dr. Louis M. Staudt's laboratory. The assay uses green (CBG68) and red (CBR) emitting beetle luciferases [Chroma-Glo(TM) developed by Promega Corp.] where the green luciferase is fused to I-kappa-B-alpha and the red luciferase is present in its native state. Both luciferase genes are stably present in the OCI-Ly3 human ABC DLBCL cell line, but their expression is under the control of tetracycline-inducible promoters. Following the addition of doxycycline to induce expression of the luciferases, the green luminescence in control cultures rises only slowly because the CBG fusion partner I-kappa-B-alpha is targeted by IKK activity for rapid degradation. In contrast, green luminescence rises rapidly in the presence of proteasome inhibitors or IKK inhibitors. The rise in red luminescence of CBR is not affected by proteasome or IKK inhibitors, and serves as normalization for cell number and nonspecific effects. Compounds were screened as a concentration-titration series that ranged from 57 uM to 0.7 nM.
NCGC Assay Protocol Summary:
Cells were seeded in 1536-well plates at 5000 cells/3ul in IMDM medium containing 0.5% FBS, w/o phenol red, L-glutamine, 25 mM HEPES, 3 mg/ml sodium bicarbonate. After centrifugation for 1 min. at 1000 rpm, 23 nl of compounds or DMSO were delivered to each well using a pin tool. Then 1ul 80ng/ml doxycycline was dispensed into white solid 1536-well plates and the plates were incubated at 37C/5% C02 in a cell incubator for 4 hrs. Then 4 ul Chroma-Glo luminescent substrate mix (Promega) was added to each well. The plate was incubated at R.T. for 10-15 min. The plates were measured on a ViewLux plate reader for green luminescence (540/20 nm filter) and red luminescence (618/8 nm filter). The green and red luminescent signals were corrected for red and green luminescence filter overlap using previously determined filter calibration constants (determined using the procedure outlined in the Promega Technical Manual). The %Activity was determined from the ratio of corrected green/red luminescent values. Green luminescent and ratio %Activity was determined by normalizing to the difference in signal between basal cells (0% Activity) and cells incubated with 10 uM of the proteasome inhibitor MG-132 (100% Activity). Red luminescent %Activity was normalized to the difference between red luminesence in basal cells (0%Activity) and zero luminescence (-100% Activity).
Concentration-response curves were fitted to the signals arising from the green luminescence (I-kappa-B-alpha-luciferase fusion; IkB-luc) and the red luminescence (unfused luciferase; luc) as well as the calculated ratio. The concentration-effect curves were then classified based on curve quality (r2), response magnitude and degree of measured activity. Compounds were then categorized based on their concentration-response curves for all three datasets (Ikb-luc, luc and ratio).
Keywords: IKK, I-kappa-B, IkB, IkBa, cytotoxicity, luminescence, MLSMR, MLSCN, NIH Roadmap, qHTS, NCGC

[1] = IkBa stabilization activation: at 57.1 µM (top of the series), proteasome inhibitor 100% unless noted
Potency is read from the fitted curve at half-maximal effect.

CCOC(=O)c1cccc(NC(=O)c2cc3cc4cc(OC)ccc4nc3s2)c1
IkBa stabilization activation [1]: inconclusive: -0.19% [signal inhibitor]

Cn1c(=O)[nH]c(=O)c2c1nc(Br)n2CCCCSc1nc2ccccc2o1
IkBa stabilization activation [1]: inconclusive: -3.78% [signal inhibitor]

CN(C)c1ccc(CNC(=O)C2CCCN(S(=O)(=O)c3ccc4c(ccn4C)c3)C2)cc1 (stereo not drawn)
IkBa stabilization activation [1]: inconclusive: 0.473% [signal inhibitor]

Cc1ccc(CNC(=O)C2CCN(S(=O)(=O)Cc3ccccc3)CC2)cc1
IkBa stabilization activation [1]: inactive

CC1(C)CC2CC(C)(CN2C(=O)COC(=O)c2ccc(Cl)cc2N)C1 (stereo not drawn)
IkBa stabilization activation [1]: inactive

O=S(=O)(O)[C@@H](c1ccccc1)[C@@H](O)c1ccccc1
IkBa stabilization activation [1]: inactive: 0.0792% [at 11.4 µM, scaled: untreated 0%, proteasome inhibitor 100%]

Clc1ccc(N2CCN(Cc3c[nH]c4ncccc34)CC2)cc1
IkBa stabilization activation [1]: inconclusive: -1.08% [signal activator]
IkBa stabilization activation (at 57.1 µM (top of the series), proteasome inhibitor 100%): inactive: -0.258%

CCCCn1c(NC(=O)c2ccccc2Cl)c(C#N)c2nc3ccccc3nc21
Potency [1]: inconclusive: 15.8 µM [signal inhibitor, partial curve]

Cc1csc(NC(=O)CSc2ncnc3c2cnn3-c2ccccc2Cl)n1
IkBa stabilization activation [1]: inconclusive: 0.204% [signal inhibitor]

CCNc1ncc2nc(C)c(=O)n(-c3ccc(OC)cc3)c2n1
IkBa stabilization activation [1]: inactive: 1.13% [at 11.4 µM, scaled: untreated 0%, proteasome inhibitor 100%]

O=C(CN1C(=O)CCC1=O)Nc1nc(-c2nc3ccccc3s2)cs1
IkBa stabilization activation [1]: inactive

O=C(Cn1c(=O)oc2cc(S(=O)(=O)N3CCCC3)ccc21)NCc1ccc(Cl)cc1
IkBa stabilization activation [1]: inconclusive: 2.05% [signal inhibitor]

Cc1ncc(CO)c2c1Oc1nc(-c3ccccc3)nc(SCC(=O)N3CCCCC3)c1C2
IkBa stabilization activation [1]: inconclusive: -2.01% [signal inhibitor]

Cc1ccc(C)c(NC(=O)NCc2ccc(Cl)cc2)c1
IkBa stabilization activation [1]: inactive: 0.109% [at 11.4 µM, scaled: untreated 0%, proteasome inhibitor 100%]

CCN(CC)C(=O)Cn1c(=O)n(Cc2ccc(C(=O)NCc3ccc(C)cc3)cc2)c(=O)c2ccccc21
IkBa stabilization activation [1]: inconclusive: 4.88% [signal inhibitor]

CS(=O)(=O)N1CCc2cc(C(=O)Nc3ccc(Cl)c(C(F)(F)F)c3)ccc21
IkBa stabilization activation [1]: inconclusive: -1.4% [signal inhibitor]

COc1ccc(NC(=O)Cn2c(=O)n(-c3cccc(C)c3)c(=O)c3c2c2cc(C)ccc2n3C)cc1Cl
IkBa stabilization activation [1]: inconclusive: 8.57% [signal inhibitor]

O=C(C1CCC(CNS(=O)(=O)c2ccc(Br)s2)CC1)N1CCN(c2ccccc2Cl)CC1 (stereo not drawn)
IkBa stabilization activation [1]: inconclusive: 4.06% [signal inhibitor]

CCOc1cc2sc(N3CCC(C(=O)Nc4ccccc4C(=O)OC)CC3)nc2cc1Br
IkBa stabilization activation [1]: inconclusive: 9.7% [signal inhibitor]

COc1cc2c(cc1OC)C(COc1ccc3c(C)cc(=O)oc3c1)N(C(=O)C(C)C)CC2 (stereo not drawn)
IkBa stabilization activation [1]: inconclusive: -0.375% [signal inhibitor]

N#Cc1nc(Cc2ccccc2)oc1N1CCC(Cc2ccccc2)CC1
IkBa stabilization activation [1]: inactive

Cn1ccc2cc3c(cc21)CCN3C(=O)Nc1cccnc1
IkBa stabilization activation [1]: inactive

O=C(Nc1c(C(=O)Nc2ccc(F)cc2)oc2ccccc12)c1cc2ccccc2o1
IkBa stabilization activation [1]: inconclusive: 2.12% [signal inhibitor]

CC(=O)Nc1ccc(C(=O)CCl)cc1
IkBa stabilization activation [1]: inconclusive: -4% [signal inhibitor]

c1ccc(-c2noc(-c3ccc4c(c3)OCO4)n2)nc1
Potency [1]: inconclusive: 3.16 µM [signal inhibitor, full curve]

Cc1cccc(-n2ccnc2SCC(=O)Nc2ccc(F)cc2F)c1C
IkBa stabilization activation [1]: inconclusive: 0.217% [signal inhibitor]

Cc1cc(Oc2c(C(F)(F)F)oc3c(CN4CCC(C)CC4)c(O)ccc3c2=O)cc(C)c1Cl
IkBa stabilization activation [1]: inconclusive: 9.86% [signal inhibitor]

Cc1ccc(C)c(CNC(=O)c2ccc3c(c2)nc2n3CCCCC2)c1
IkBa stabilization activation [1]: inconclusive: 3.78% [signal inhibitor]

Cc1ccc(C)c(CN2CCC(CNC(=O)Nc3ccc(Br)cc3F)CC2)c1
IkBa stabilization activation [1]: inconclusive: 5.89% [signal inhibitor]

Cc1cc(C(=O)CSc2nnc(-c3ccco3)o2)c(C)n1Cc1ccco1
IkBa stabilization activation [1]: inconclusive: 4.13% [signal inhibitor]

O=C(O)CCC(=O)OC1CC2CCC1C2 (stereo not drawn)
IkBa stabilization activation [1]: inconclusive: 3.4% [signal activator]

O=C(CC(SCCO)c1ccc2c(c1)OCO2)c1ccco1 (stereo not drawn)
IkBa stabilization activation [1]: inconclusive: 4.85% [signal inhibitor]

CC(C)(C)n1ncc2c(=O)n(CC(=O)NCc3ccccc3)cnc21
IkBa stabilization activation [1]: inactive

CCOc1ccc(NC(=O)Cn2cc(C(=O)c3ccc(CC)cc3)c(=O)c3cc(OC)c(OC)cc32)cc1
IkBa stabilization activation [1]: inconclusive: 0.412% [signal inhibitor]

COc1ccc2cc3cc(C(=O)N4CCN(c5cccc(Cl)c5)CC4)sc3nc2c1
IkBa stabilization activation [1]: inconclusive: 5.01% [signal inhibitor]

CCN(CC)C(=O)c1sc2nc(-c3ccc(OC)cc3)cn2c1C
IkBa stabilization activation [1]: inactive

CC(C)CCNC(=O)CSc1nc2ccccc2nc1Cc1ccccc1
IkBa stabilization activation [1]: inconclusive: -0.766% [signal inhibitor]

CCc1ccccc1NC(=O)Nc1ccc2c(c1)N(CC)C(=O)c1ccccc1S2
IkBa stabilization activation [1]: inactive

CCc1cccc(-n2c(C)nc3c(cnn3-c3ccc(C)c(C)c3)c2=O)c1
IkBa stabilization activation [1]: inconclusive: 3.29% [signal inhibitor]

C[C@@H]1O[C@@H](n2cc(F)c(=O)[nH]c2=O)[C@H](O)[C@@H]1O
IkBa stabilization activation [1]: inactive

Cc1nnc(Sc2cc(C(=O)NCc3ccco3)c3ccccc3n2)s1
Potency [1]: inconclusive: 31.6 µM [signal inhibitor, single point]

COc1cccc(NC(=O)CSc2nc3cc(OC)c(OC)cc3c3nc(-c4ccccc4)nn23)c1
IkBa stabilization activation [1]: inconclusive: -1.51% [signal inhibitor]
